Laboratory results reported in PMC12040169 (PLOS Biology, 2025).
The list shows a part of the results.

These molecules were tested on T1, C. trachomatis L2/434/Bu expressing GFP (CTL2-GFP). Conditions: total inclusion area; 28.5 h, 10 µM; inhibitor.
T1 construct: L2/434/Bu GFP intracellular growth in HeLa cells
Set-up: species or system HeLa; C. trachomatis total inclusion area by high-content imaging, normalised to DMSO
Method in brief: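 Post-fluorescence-read fixation, DNA staining with Hoechst and high-content imaging; GFP inclusion area and number per well, and nuclei counts, used as proxies for bacterial growth and host viability.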

| Compound | % of control remaining |
| --- | --- |
| COCCCn1c(CCC(=O)O)ccc1-c1ccc(Br)cc1 [CBK268015] | 100.705 |
| CCc1ccccc1OCC(=O)Nc1ccc([N+](=O)[O-])cc1OC [CBK265665] | 96.9309 |
| Cc1ccccc1-n1ncc2c(=O)n(CC(=O)N3CCCCC3)cnc21 [CBK287688] | 125.165 |
| CN1CCC2(CC1)NCCc1c2ccn1S(=O)(=O)c1cccc2c(N(C)C)cccc12 [CBK061633C] | 72.5419 |
| O=C(O)c1cc(C=Cc2ccc(Cl)c([N+](=O)[O-])c2)nc2ccccc12 [CBK297495] | 69.6379 |
| O=[N+]([O-])c1ccc(NCCNc2nc3ccccc3nc2N2CCOCC2)cc1 [CBK266342] | 82.1254 |
| CCOC(=O)c1ccc(Cn2c(-c3ccccc3)nnc2-c2ccccc2)o1 [CBK267691] | 78.2359 |
| Cc1nc2c(c(=O)n1C)CN(Cc1cc(=O)n3cccc(O)c3n1)C2 [CBK306991] | 67.1748 |
| COc1ccccc1C(NC(=O)C1CCN(C(=O)OC(C)C)CC1)c1ccccn1 (stereo not drawn) [CBK059649] | 77.772 |
| Cc1ccc(NC2=N[C@H]3[C@@H](O)[C@H](O)C[C@H](C(=O)N4CCCCC4)[C@H]3S2)cc1 [CBK288951] | 91.1333 |
| CSCCCNC(=O)N(C)C1CCN(C)C1 (stereo not drawn) [CBK155995] | 106.183 |
| O=C1NCCCC12CCN(Cc1cccc3cccnc13)CC2 [CBK284826] | 107.38 |
| Nc1n[nH]c(=O)c2c1ncn2[C@H]1C[C@@H](O)[C@@H](CO)O1 [CBK201169] | 131.561 |
| CCCCOc1ccc(C(=O)N(C)c2ccc(CCC)cc2)cc1 [CBK161619] | 56.7064 |
| Cc1nn(C)c(C)c1CC(=O)N1CCc2c(sc3ncnc(N)c23)C1 [CBK306065] | 65.8221 |
| CC(C)c1ccc(S(=O)(=O)N(CCC#N)Cc2ccccc2)cc1 [CBK043565] | 87.9037 |
| Cc1cc(CNC(=O)C2CC(=O)N(Cc3ccccn3)C2)ccc1F (stereo not drawn) [CBK305557] | 91.0306 |
| C=CCn1c(-c2sc(NC(=O)CNC(=O)C(C)(C)C)nc2C)n[nH]c1=S [CBK297907] | 61.1427 |
| Cn1c(CNc2ccccc2C(=O)O)c(C#N)c2ccccc21 [CBK286977] | 103.475 |
| Cc1ccc2[nH]c(SCC(=O)Nc3ccc(C(=O)O)cc3)nc2c1 [CBK297526] | 90.3886 |
| Cc1ccc(CC(=O)N2CCc3nn(C(C)C)c(=O)cc3C2)cc1 [CBK284499] | 109.886 |
| COC(=O)[C@@H]1CN(C(=O)c2cccs2)C[C@H]1c1ccc(OC)cc1 [CBK283725] | 93.6521 |
| Cc1cccc(NC(=O)[C@@H](NC(=O)c2ccccc2F)C(C)C)c1C [CBK297509] | 88.771 |
| CN1CCN(c2nc(-c3ccco3)cnc2N)CC1 [CBK063449] | 108.236 |
| COc1ccccc1CC(=O)N(Cc1cccnc1)C[C@@H]1CCC(=O)N1 [CBK307504] | 85.4429 |
| O=C(O)CCC(=O)N1N=C(c2ccccc2)CC1c1ccc2nccnc2c1 (stereo not drawn) [CBK266650] | 87.726 |

| Compound | % of control remaining |
| --- | --- |
| O=C(Cc1c[nH]c2ccccc12)Nc1ccccc1N1CCNCC1 [CBK028288T] | 92.6214 |
| Cc1nc2sccn2c1CN1CCc2sccc2C1C (stereo not drawn) [CBK282807] | 91.5748 |
| Cc1sc2ncnc(N3CCCC3Cn3cccn3)c2c1C (stereo not drawn) [CBK304570] | 30.8225 |
| CC(C)N1CCC(CNC(=O)c2cc3ccccc3c(=O)s2)CC1 [CBK282711] | 140.884 |
| O=C(NCc1ccccn1)Nc1ccc2c(c1)OCO2 [CBK267014] | 110.896 |
| COCOc1ccc(-c2ncc(OCCN3CCCC3=O)nc2NC(C)=O)cc1 [CBK145253] | 88.3124 |
| CN1N=C(c2ccccc2)CC1=O [CBK067774] | 91.0282 |
| Cc1ccc(S(=O)(=O)NC2c3cccc4cccc(c34)C2Sc2nncn2N)cc1 (stereo not drawn) [CBK265873] | 83.9034 |
| Cc1cc(Cl)c(OCCn2c3ccccc3c3ccccc32)c(Br)c1 [CBK264826] | 104.634 |
| C#CCOc1ccc(/C=C2/SC(=S)N(CCC(=O)O)C2=O)cc1 [CBK265667] | 104.504 |
| NC(=O)CN1CCCc2ccccc21 [CBK138343] | 86.4766 |
| CCOC(=O)c1c(NC(=O)CSc2nc3ccccc3s2)sc2c1CCC2 [CBK263220] | 126.223 |
| COCCNC(=O)c1sc2ccccc2c1C1CCN(Cc2ccc3ncccc3c2)C1 (stereo not drawn) [CBK285680] | 96.5024 |
| O=C(Nc1ccc2oc(-c3ccccc3)nc2c1)C1CCCO1 (stereo not drawn) [CBK107724] | 110.319 |
| Cc1ccc(S(=O)(=O)N(CCO)CC(O)Cn2c3ccc(Cl)cc3c3cc(Cl)ccc32)cc1 (stereo not drawn) [CBK263392] | 72.4165 |
| O=C(NC(=S)Nc1ccc2oc(-c3cncc(Br)c3)nc2c1)c1cc([N+](=O)[O-])ccc1N1CCOCC1 [CBK268864] | 82.503 |
| CCc1c(Cc2[nH]c(C)c(C(C)=O)c2C)[nH]c(C(=O)O)c1C [CBK286717] | 74.957 |
| O=[N+]([O-])c1ccc2c(c1)nnn2CN1CCCCC1 [CBK261663] | 101.136 |
| O=C(NC1CCCCC1)c1cc(NC(=O)c2ccccc2C(=O)O)ccc1Cl [CBK287062] | 88.9994 |
| COc1ccc(C2CC(c3ccc(Cl)cc3)Nc3ncnn32)c(OC)c1 (stereo not drawn) [CBK287848] | 124.125 |
| Cc1cc(C)c(-c2csc(NS(=O)(=O)c3cccc(C(=O)O)c3)n2)cc1C [CBK296698] | 103.774 |
| CC1CCC(C(N)=O)CN1C(=O)c1cc(Br)c[nH]1 (stereo not drawn) [CBK305769] | 58.0587 |
| Cc1nn(C)c(C)c1CCNC(=O)CC1CCCCN1C (stereo not drawn) [CBK281774] | 110.753 |
| O=C1CCCN1CCCNc1ncnc2c1cnn2-c1ccc(Cl)cc1 [CBK265838] | 0 |
| Cc1ccc(-c2n[nH]c(=S)n2CCC(=O)NC(C)c2ccc3c(c2)CCCC3)cc1 (stereo not drawn) [CBK295666] | 97.4484 |
